Measured values: the supplement of paper PMC4604168 (melanoma cell lines)
The other results are listed elsewhere or left out. Repeats are few or missing, and single values can be far off.

What was measured:
Test in all cases: cell count relative to DMSO control; melanoma cells; higher = more viable cells
Conditions in all cases: library dose: low library concentration; 72 h
[1] = system: MZ2-MEL
[2] = system: MeWo
[3] = system: RPMI7951
[4] = system: RVH-421
[5] = system: SkMel28
[6] = system: SkMel2
[7] = system: SkMel30
[8] = system: UACC62
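Note: cell number obtained by counting DAPI-stained nuclei in high-throughput microscope images with image analysis software, screen run in 1,536-well plates.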

| SMILES | cell count [1] [%] | cell count [2] [%] | cell count [3] [%] | cell count [4] [%] | cell count [5] [%] | cell count [6] [%] | cell count [7] [%] | cell count [8] [%] |
| --- | --- | --- | --- | --- | --- | --- | --- | --- |
| CCN(CC)CCNC(=O)c1c(C)[nH]c(/C=C2\C(=O)Nc3ccc(F)cc32)c1C [sunitinib] + Cc1nc(Nc2ncc(C(=O)Nc3c(C)cccc3Cl)s2)cc(N2CCN(CCO)CC2)n1 [dasatanib] (first compound 0.4 µM, partner dose 0.004 µM) | 103 | 65.9 | 86.6 | 84.8 | 81.5 | 110 | 61.7 | 73.7 |
| C[C@]1(O)C[C@@H](c2nc(-c3ccc4ccc(-c5ccccc5)nc4c3)c3c(N)nccn32)C1 + C#Cc1cccc(Nc2ncnc3cc(OCCOC)c(OCCOC)cc23)c1 [erlotinib] (first compound 0.4 µM, partner dose 0.8 µM) | 88.9 | 86.5 | 95.7 | 114 | 111 | 82 | 78.7 | 81.9 |
| COc1cc([C@@H]2c3cc4c(cc3[C@@H](O[C@@H]3O[C@@H]5CO[C@@H](C)O[C@H]5[C@H](O)[C@H]3O)[C@H]3COC(=O)[C@H]23)OCO4)cc(OC)c1O [etoposide] + CC(=O)O[C@@]12CO[C@@H]1C[C@H](O)[C@@]1(C)C(=O)[C@H](O)C3=C(C)[C@@H](OC(=O)[C@H](O)[C@@H](NC(=O)OC(C)(C)C)c4ccccc4)C[C@@](O)([C@@H](OC(=O)c4ccccc4)[C@H]21)C3(C)C [Docetaxel] (first compound 0.02 µM, partner dose 0.0001 µM) | 56.7 | 59.2 | 56.4 | 51.2 | 54.8 | 49.4 | 41 | 45.2 |
| COc1cc([C@@H]2c3cc4c(cc3[C@@H](O[C@@H]3O[C@@H]5CO[C@@H](C)O[C@H]5[C@H](O)[C@H]3O)[C@H]3COC(=O)[C@H]23)OCO4)cc(OC)c1O [etoposide] + CNC(=O)c1cc(Oc2ccc(NC(=O)Nc3ccc(Cl)c(C(F)(F)F)c3)cc2)ccn1 [sorafenib] (first compound 0.02 µM, partner dose 0.4 µM) | 84.8 | 96.6 | 92.1 | 101 | 94.6 | 121 | 109 | 106 |
| Cn1cnc2c(F)c(Nc3ccc(Br)cc3Cl)c(C(=O)NOCCO)cc21 [selumetinib] + Cc1nc(Nc2ncc(C(=O)Nc3c(C)cccc3Cl)s2)cc(N2CCN(CCO)CC2)n1 [dasatanib] (first compound 0.015 µM, partner dose 0.004 µM) | 67.8 | 74.9 | 74.8 | 68.8 | 73.8 | 78.8 | 57.3 | 60.1 |
| COc1cc([C@@H]2c3cc4c(cc3[C@@H](O[C@@H]3O[C@@H]5CO[C@@H](C)O[C@H]5[C@H](O)[C@H]3O)[C@H]3COC(=O)[C@H]23)OCO4)cc(OC)c1O [etoposide] + Cn1c(=O)n(-c2ccc(C(C)(C)C#N)cc2)c2c3cc(-c4cnc5ccccc5c4)ccc3ncc21 [NVP-BEZ235] (first compound 0.02 µM, partner dose 0.004 µM) | 96.7 | 84.1 | 95 | 85.9 | 93.9 | 90 | 93.5 | 79.2 |
| CCN(CC)CCNC(=O)c1c(C)[nH]c(/C=C2\C(=O)Nc3ccc(F)cc32)c1C [sunitinib] + CC(=O)O[C@@]12CO[C@@H]1C[C@H](O)[C@@]1(C)C(=O)[C@H](O)C3=C(C)[C@@H](OC(=O)[C@H](O)[C@@H](NC(=O)OC(C)(C)C)c4ccccc4)C[C@@](O)([C@@H](OC(=O)c4ccccc4)[C@H]21)C3(C)C [Docetaxel] (first compound 0.4 µM, partner dose 0.0001 µM) | 43.4 | 48.5 | 46.1 | 96.4 | 56.5 | 47.9 | 30.5 | 55.3 |
| Cn1cnc2c(F)c(Nc3ccc(Br)cc3Cl)c(C(=O)NOCCO)cc21 [selumetinib] + CS(=O)(=O)CCNCc1ccc(-c2ccc3ncnc(Nc4ccc(OCc5cccc(F)c5)c(Cl)c4)c3c2)o1 [lapatinib] (first compound 0.015 µM, partner dose 0.8 µM) | 86.4 | 89.3 | 113 | 79.9 | 71.1 | 77.3 | 59 | 66.4 |
| COc1cc([C@@H]2c3cc4c(cc3[C@@H](O[C@@H]3O[C@@H]5CO[C@@H](C)O[C@H]5[C@H](O)[C@H]3O)[C@H]3COC(=O)[C@H]23)OCO4)cc(OC)c1O [etoposide] + Nc1cccc2c1CN(C1CCC(=O)NC1=O)C2=O [lenalidomide] (first compound 0.02 µM, partner dose 1 µM) | 87.9 | 95 | 87.9 | 78.3 | 86.9 | 90.3 | 97.6 | 90.9 |
| C[C@]1(O)C[C@@H](c2nc(-c3ccc4ccc(-c5ccccc5)nc4c3)c3c(N)nccn32)C1 + CS(=O)(=O)c1ccc(C(=O)Nc2ccc(Cl)c(-c3ccccn3)c2)c(Cl)c1 [vismodegib] (first compound 0.4 µM, partner dose 1 µM) | 91.4 | 91.2 | 92.8 | 129 | 93.7 | 75.7 | 80.6 | 92.8 |
| C[C@]1(O)C[C@@H](c2nc(-c3ccc4ccc(-c5ccccc5)nc4c3)c3c(N)nccn32)C1 + CN1CCN(c2ccc3nc(-c4c(N)c5c(F)cccc5[nH]c4=O)[nH]c3c2)CC1 [Dovitinib] (first compound 0.4 µM, partner dose 0.1 µM) | 86.1 | 88.7 | 102 | 107 | 81.9 | 95.4 | 71.6 | 87.5 |
